Measured values from PubChem BioAssay AID1460 (National Center for Advancing Translational Sciences (NCATS), 2008).
Hit rate of the full screen: of about 270,000 compounds, about 5,800 (2.1%) were called active. Inconclusive results, whose numbers are uncertain, are shown with a selection of clear calls. The call rests on the fitted dose curve; in most records, active means well fitted inhibition curve with a large enough effect; inconclusive means small, poorly fitted or top-dose-only effect; inactive means flat fitted curve, though single readings scatter. Potencies beside an inconclusive call are fits to weak or partial responses and may not hold up.

Target: Microtubule-associated protein tau (Homo sapiens) (UniProt P10636)
Assay: qHTS for Inhibitors of Tau Fibril Formation, Thioflavin T Binding; further: nearly all actives have a fitted effect of over 55% in size
Conditions: recombinant tau K18 P301L (four-repeat tau fragment), heparin-induced fibrillization, ThT fluorescence; series mostly up to 57.4 µM; activity, negative = inhibition: at the top concentration
In short: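 Tau K18 P301L fragment (15 uM unlabeled plus 0.24 uM Alexa 594-labeled) in 100 mM sodium acetate pH 7 with compound, fibrillization induced by 20 uM heparin for 6 hr at 37 C. Thioflavin T (30 uM) added, fluorescence read after 1 hr (ex 450, em 510 nm).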
On the % scale 0 is the no-effect control and ±100 the full control effect; potency means the concentration at half of the fitted maximal effect; tags describe the fitted curve by direction and shape.

UniProt P10636, sequence (P10636 whole entry, looked up): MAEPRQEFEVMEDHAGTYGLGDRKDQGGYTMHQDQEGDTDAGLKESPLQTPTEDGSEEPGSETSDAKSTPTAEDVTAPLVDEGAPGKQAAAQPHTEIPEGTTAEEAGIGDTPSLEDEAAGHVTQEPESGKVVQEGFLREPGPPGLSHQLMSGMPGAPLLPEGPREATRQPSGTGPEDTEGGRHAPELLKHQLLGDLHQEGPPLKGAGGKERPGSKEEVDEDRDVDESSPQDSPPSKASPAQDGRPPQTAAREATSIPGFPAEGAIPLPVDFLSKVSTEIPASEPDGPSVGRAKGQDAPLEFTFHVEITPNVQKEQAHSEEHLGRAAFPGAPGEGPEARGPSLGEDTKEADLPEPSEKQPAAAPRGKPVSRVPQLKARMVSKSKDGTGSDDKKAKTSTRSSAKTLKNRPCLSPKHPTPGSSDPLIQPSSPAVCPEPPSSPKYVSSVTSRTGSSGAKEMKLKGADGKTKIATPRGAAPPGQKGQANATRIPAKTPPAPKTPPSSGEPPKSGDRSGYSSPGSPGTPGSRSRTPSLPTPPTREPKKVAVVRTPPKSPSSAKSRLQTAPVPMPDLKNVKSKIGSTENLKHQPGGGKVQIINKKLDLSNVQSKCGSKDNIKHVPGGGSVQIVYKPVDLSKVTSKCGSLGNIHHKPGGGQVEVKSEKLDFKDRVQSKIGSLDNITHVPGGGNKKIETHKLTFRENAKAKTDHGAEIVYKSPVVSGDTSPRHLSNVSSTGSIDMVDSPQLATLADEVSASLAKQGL

| Structure (SMILES) | Potency | activity, negative = inhibition |
| --- | --- | --- |
| COc1ccc(C2C3(C#N)C(N)=NC(OC)(OC)C23C#N)cc1 (stereo not drawn) | inconclusive: 22.4 µM [inhibitor, partial curve] |  |
| CCC1=C2CC[C@H]3C(=O)N(c4ccccc4)C(=O)[C@H]3[C@H]2[C@@]2(Cc3ccccc3)C(=O)N(CC(=O)OC)C(=O)N2C1=O |  | inactive: -13.7% |
| COc1cccc(-c2nnc(SCC(=O)N3CCCc4ccccc43)o2)c1 | inconclusive: 28.2 µM [inhibitor, single point] |  |
| COC(=O)c1ccccc1NC(=O)c1sc(N)nc1C |  | inactive: -15.4% |
| Cc1cccc(OCC(=O)Nc2c(C(=O)N3CCN(c4ccccc4F)CC3)oc3ccccc23)c1 |  | inactive: -10.7% |
| Cc1cc(C)cc(OCC(=O)NC(Cc2c[nH]c3ccccc23)C(=O)O)c1 (stereo not drawn) |  | inactive: -2.72% |
| O=C1C(Cl)=C(Nc2ccc3cn[nH]c3c2)C(=O)c2ccccc21 | active: 1.78 µM |  |
| O=C(/C=C\Nc1ccc2c(c1)OCO2)c1cccs1 | active: 2 µM |  |
| COc1ccccc1NCc1cccn1-c1nnc(N2CCCCCC2)s1 | inconclusive: 20 µM [inhibitor, single point] |  |
| COC(=O)c1ccc(NC(=O)CC2Nc3cc(C)c(C)cc3NC2=O)cc1 (stereo not drawn) | inconclusive: 14.1 µM [inhibitor, partial curve] |  |
| Cc1cc([N+](=O)[O-])cc(C)c1OCC(=O)N/N=C/c1ccc(OC(=O)c2ccccc2Br)cc1 | inconclusive: 28.2 µM [inhibitor, single point] |  |
| CCC1CN(C(=O)Nc2cc(C)ccc2OC)c2cc(Cl)ccc2O1 (stereo not drawn) |  | inactive: -15.3% |
| CCN1CCN(Cc2ccc(NC(=O)Nc3ccc(SC)cc3)cc2)CC1 | inconclusive: 28.2 µM [inhibitor, partial curve] |  |
| Cc1cc(N=NC(=O)c2ccccc2O)c2ccccc2c1O | active: 14.1 µM |  |
| CCC(C)n1ncn(-c2ccc(N3CCN(c4ccc(OCC5COC(Cn6cncn6)(c6ccc(Cl)cc6Cl)O5)cc4)CC3)cc2)c1=O (stereo not drawn) | active: 1.41 µM |  |
| COc1ccc(/C=C/C(=O)c2cc(O)ccc2O)cc1 | active: 14.1 µM |  |
| COC(=O)c1ccc(/C=N\NC(=O)c2ccc(C)cc2Cl)cc1 | inconclusive: 2.51 µM [inhibitor, full curve] |  |
| O=S(=O)(CCOc1ccccc1)N1CCOCC1 |  | inactive: 1.75% |
| Cc1ccc(CNC(=O)CCCn2nc(C)c3c(C)n(-c4ccccc4)nc3c2=O)cc1 |  | inactive: -3.94% |
| CCOC(=O)c1c(NC(=O)CSc2cn(CCNC(=O)c3ccc(OC)c(OC)c3)c3ccccc23)sc2c1CCCC2 | inconclusive: 39.8 µM [inhibitor, single point] |  |
| COc1ccc(-c2ccoc2)cc1[C@H]1[C@H]2C=CC[C@@H](C)[C@@H]2C(=O)N1Cc1ccccc1 | inconclusive: 39.8 µM [inhibitor, single point] |  |
| Cc1ccc(CNC(=O)Nc2cccs2)cc1 |  | inactive: -13.3% |
| O=C(Nc1ccccc1)N(Cc1cccs1)c1ccc(F)cc1 |  | inactive: -4.68% |

| Structure (SMILES) | Potency | activity, negative = inhibition |
| --- | --- | --- |
| CCCn1c(SCC(=O)Nc2sc(C)c(C)c2C#N)nnc1C(C)C | inconclusive: 12.6 µM [inhibitor, single point] |  |
| CC(SCc1cc(=O)n2c([nH]c3ccccc32)c1C#N)C(=O)O (stereo not drawn) | inconclusive: 12.6 µM [inhibitor, partial curve, poor fit] |  |
| COc1ccccc1-c1c(C(F)(F)F)oc2cc(OC(=O)c3cccc([N+](=O)[O-])c3C)ccc2c1=O | inconclusive: 15.8 µM [inhibitor, partial curve] |  |
| Cc1csc(=Nc2ccccc2)n1C |  | inactive: -0.475% |
| C[C@@H](C[C@@H](O)[C@H](O)C(C)(C)O)[C@@H]1CC[C@]2(C)C3=CC[C@H]4C(C)(C)C(=O)CC[C@]4(C)[C@H]3CC[C@@]12C | inconclusive: 11.2 µM [inhibitor, partial curve] |  |
| COc1ccc(C2C(C(=O)NC(C)C)c3ccccc3C(=O)N2C)cc1OC (stereo not drawn) | inconclusive: 7.94 µM [inhibitor, partial curve] |  |
| Brc1ccccc1/C=N/Nc1ccc2ccccc2n1 | inconclusive: 15.8 µM [inhibitor, partial curve] |  |
| COC(=O)c1ccccc1N=Nc1c(N)[nH][nH]c1=O | inconclusive: 22.4 µM [inhibitor, partial curve] |  |
| CCN(C(=O)CSc1nnnn1-c1ccccc1)c1c(N)n(Cc2ccccc2)c(=O)[nH]c1=O |  | inactive: -15% |
| COc1cc(CN2CCN(Cc3ccc(SC)cc3)CC2)cc(OC)c1O | inconclusive: 17.8 µM [inhibitor, partial curve] |  |
| CCCn1c(SCC(=O)NCc2ccco2)nnc1C(C)C | inconclusive: 8.91 µM [inhibitor, partial curve] |  |
| Cc1cc(C)c(S(=O)(=O)c2ccccc2C)c(Oc2ccccc2)n1 |  | inactive: -5.59% |
| COC(=O)c1ccccc1NC(=S)NC(=O)c1ccccc1C | inconclusive: 14.1 µM [inhibitor, partial curve] |  |
| COc1ccc(-c2cc(C(=O)NC(C(=O)O)C(C)C)c(C)o2)cc1OC (stereo not drawn) | inconclusive: 20 µM [inhibitor, single point] |  |
| O=C(c1ccccc1F)N1CCN(c2ccc([N+](=O)[O-])c3ncccc23)CC1 | inconclusive: 31.6 µM [inhibitor, partial curve] |  |
| CCOc1ccc(C(=O)Nc2c(C(=O)N3CCN(c4ccccc4F)CC3)oc3ccccc23)cc1 | inconclusive: 31.6 µM [inhibitor, single point] |  |
| Cc1ccc(NS(=O)(=O)c2cc3[nH]c(=O)c(=O)[nH]c3cc2C)cc1Cl |  | inactive: -7.71% |
| COc1cccc(CNS(=O)(=O)c2cccc(S(=O)(=O)N3CCOCC3)c2)c1 | inconclusive: 28.2 µM [inhibitor, single point] |  |
| Cc1ccnc(Nc2nc(-c3c(C)nc4sccn34)cs2)c1 | active: 7.94 µM |  |
| Cc1ccc(NC(=S)NCc2cccs2)cc1 |  | inactive: -9.95% |
| CCOc1ccc(N2Nc3n[nH]c(N)c3N2)cc1 | active: 12.6 µM |  |
| CCn1c(SCC(=O)Nc2ccc(OC)cc2)nc2nc3c(cc2c1=O)CCCC3 | inconclusive: 17.8 µM [inhibitor, single point] |  |
| COc1ccc(NC(=O)c2ccco2)cc1NC(=O)COc1ccc(Cl)c(C)c1 | inconclusive: 1.12 µM [inhibitor, full curve] |  |

| Structure (SMILES) | Potency | activity, negative = inhibition |
| --- | --- | --- |
| COc1ccc(C(=S)NCS(=O)(=O)c2ccc(C)cc2)cc1 | inconclusive: 20 µM [inhibitor, single point] |  |
| COc1ccc2c(c1)OC(=O)CC2c1ccccc1C (stereo not drawn) | inconclusive: 44.7 µM [inhibitor, single point] |  |
| OCC#CCSc1nnc(-c2ccc(Br)cc2)o1 | inconclusive: 39.8 µM [inhibitor, single point] |  |
| Cc1ccc(NC(=O)N2CC3CCCN3c3ccccc32)c(C)c1 (stereo not drawn) | inconclusive: 28.2 µM [inhibitor, single point] |  |
| NNC(=O)c1ccc(CSc2nc3ccccc3[nH]2)cc1 | inconclusive: 14.1 µM [inhibitor, partial curve, poor fit] |  |
| N#CC1=C2N=C(N)c3ccccc3N2C2=C(C(=O)CCC2)C1c1cccc(Cl)c1 (stereo not drawn) | inconclusive: 17.8 µM [inhibitor, partial curve] |  |
| Cc1ccc(S(=O)(=O)CCSC(=N)N)cc1 | inconclusive: 22.4 µM [inhibitor, single point] |  |
| COc1ccccc1Nc1nnc(SCc2cc(=O)n3ccsc3n2)s1 | inconclusive: 31.6 µM [inhibitor, single point] |  |
| c1ccc(-c2nc(-c3ccc(-c4ccon4)s3)no2)cc1 | inconclusive: 6.31 µM [inhibitor, partial curve, poor fit] |  |
| O=c1[nH]cc(NCCc2ccccc2)c(=O)[nH]1 | inconclusive: 28.2 µM [inhibitor, single point] |  |
| CC1(C)CC(=O)C(Sc2nnc(-c3ccc(O)cc3)n2CC2CCCO2)C(=O)C1 (stereo not drawn) |  | inactive: -0.109% |
| CC1(C)CC(=O)C=C(OC(=O)c2ccc(Cl)cc2)C1 | inconclusive: 22.4 µM [inhibitor, partial curve] |  |
| COc1cccc(-c2nc(N3CCCCC3C)c3ccccc3n2)c1O (stereo not drawn) | inconclusive: 31.6 µM [inhibitor, single point] |  |
| COC(=O)c1ccc(CSc2ccccc2C)o1 | inconclusive: 31.6 µM [inhibitor, single point] |  |
| O=C(CCn1c2c(c3ccccc31)CCCC2)NNC(=O)c1cccc([N+](=O)[O-])c1 | inconclusive: 22.4 µM [inhibitor, single point] |  |
| CC1CCN(c2cc(N3CCN(C(=O)c4ccc(F)c(F)c4)CC3)c([N+](=O)[O-])cc2F)CC1 | inconclusive: 12.6 µM [inhibitor, partial curve] |  |
| Cc1nc(SC(C)C(=O)Nc2ccccc2Cl)cc(-c2ccccc2)n1 (stereo not drawn) | inconclusive: 20 µM [inhibitor, single point] |  |
| Cc1ccc(S(=O)(=O)CCc2ccccn2)cc1 |  | inactive: -6.75% |
| COc1ccc(N2CCN(Cc3cccn3-c3nnc(N4CCN(C5CCCCC5)CC4)s3)CC2)cc1 | inconclusive: 44.7 µM [inhibitor, single point] |  |
| COc1ccc(N(C)C(=O)c2cnc(N3CCN(c4ncccn4)CC3)c3ccccc23)cc1 | inconclusive: 20 µM [inhibitor, partial curve] |  |
| Cc1ccc([N+](=O)[O-])cc1Nc1nc(N2CCOCC2)nc(N2CCOCC2)n1 | inconclusive: 31.6 µM [inhibitor, single point] |  |
| Cc1ccc(/C=N/Nc2cc(C)nc(N3CCOCC3)n2)cc1 | inconclusive: 11.2 µM [inhibitor, partial curve, poor fit] |  |
